Laboratory results: PubChem BioAssay AID2546 (National Center for Advancing Translational Sciences (NCATS), 2010)
Among all 310,000 compounds or so, about 11,000 (3.5%) were called active. This list was built around the results that the source calls inconclusive (neither active nor inactive); the mix of calls is not that of the screen. The call rests on the fitted dose curve; in most records, active means well fitted inhibition curve with a large enough effect; inconclusive means small, poorly fitted or top-dose-only effect, or effect the other way; inactive means flat fitted curve, though single readings scatter. No potency is given beside an inconclusive call; the fits are too rough.
Potency means the concentration at half of the fitted maximal effect; tags describe the fitted curve by direction and shape.

Test: VP16 counterscreen qHTS for inhibitors of ROR gamma transcriptional activity;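 further: Gal4-VP16 expression switched on by copper sulfate through the metallothionein promoter; nearly all actives have a fitted effect of over 50% in size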
Conditions: Drosophila S2 Gal4-VP16 UAS-luciferase, luminescence, 20 h; series mostly up to 53.6 µM
With COc1ccc(NC(=O)C2=CC(c3ccc(OC)c(OC)c3)=NS(=O)(=O)N2C)cc1 the Potency was inconclusive [inhibitor, single point]. In the case of O=C1C2C(C(=O)N1/N=C/c1ccc(N3CCCCC3)o1)C1C=CC2C12CC2 (centres undefined), the Potency is reported as active: 3.16 µM. In the case of O=C(Nc1ccc(S(=O)(=O)Nc2ccc(Cl)cc2)cc1)C1CCCO1 (centres undefined), the Potency is reported as inconclusive [inhibitor, single point]. In the case of C=CCNc1nc(C(F)(F)F)nc2c1nnn2Cc1ccccc1Cl, the Potency is reported as inconclusive [inhibitor, single point]. For CCc1ccc(CNc2ccc3c(c2)ncn3C)cc1, the Potency was inconclusive [inhibitor, partial curve, poor fit]. In the case of COc1ccc(N=Nc2ccc3ccccc3c2)c(O)c1, the Potency is reported as inconclusive [inhibitor, single point]. With CC1CCN(CC(=O)Nc2nc(-c3ccccc3)cs2)CC1 the Potency was inconclusive [inhibitor, single point]. For Nc1c(C(=O)NC2CCCC2)c2nc3ccccc3nc2n1/N=C/c1ccco1, the Potency was inconclusive [inhibitor, full curve, poor fit]. With CC(C)C(=O)NC(=S)Nc1ccc(S(=O)(=O)N(C)Cc2ccccc2)cc1 the Potency was inconclusive [inhibitor, single point]. With Cc1ccc(C(=O)NC(=S)Nc2ccc(CN3CCCCC3)cc2)c(C)c1 the Potency was inconclusive [inhibitor, single point]. For CN1CCN(c2ncncc2-c2ccccc2C(F)(F)F)CC1, the Potency was “inactive”. In the case of Cc1ccc(-c2noc(CCC(=O)NCCN3CCN(Cc4ccccc4)CC3)n2)cc1, the Potency is reported as inconclusive [inhibitor, single point]. With S=C(Nc1ccc(OCc2ccccc2)cc1)Nc1cccc(Cl)c1Cl the Potency was “inactive”. With COC(=O)/C=C/c1cccc([C@H]2[C@@H]3C=CC[C@@H](C)[C@@H]3C(=O)N2Cc2ccccc2)c1 the Potency was “inactive”. With O=C(Nc1ccc(F)cc1)c1nn(-c2ccccc2)c(=O)cc1Cl the Potency was inconclusive [inhibitor, single point]. With Cc1ccc2nc3c(c(Nc4ccc5c(c4)OCCO5)c2c1)CCC3 the Potency was inconclusive [inhibitor, single point]. In the case of CCCCCCC(C)n1[nH]c(=O)c2c(C)cc(=O)[nH]c21 (centres undefined), the Potency is reported as active: 3.98 µM. For COc1ccc(CCNc2c(C)c(C)nc3ncnn23)cc1, the Potency was active: 6.31 µM. With COc1ccc(-c2cn(-c3ccc(OC)cc3)c3[n+]2-c2ccccc2CC3)cc1 the Potency was active: 4.47 µM.
